Test results reported in ChEMBL document CHEMBL4888484, “Replenishing the malaria drug discovery pipeline: Screening and hit evaluation of the MMV Hit Generation Library 1 (HGL1) against asexual blood stage Plasmodium falciparum ,using a nano luciferase reporter read-out” (2022).
In all, about 150,000 compounds went through this assay and about 540 (0.36%) showed an effect of 50% or more. The list shows a part of the results.

Test system: Plasmodium falciparum
Experiment: Primary screen in NF54 nanoGlo assay, in single point, at 2uM, 72h; a lower Z score goes with more inhibition
Type: functional, Erythrocyte
Conditions: timepoint 72 hour

Structure (SMILES)	% Inhibition [%]	Z score
CN(Cc1nccs1)c1nc2nonc2nc1N1CCCCC1	0	0.03
CN1C(=O)C[C@H](C(=O)NCc2ccc3[nH]cnc3c2)C1(C)C	-4	0.39
Cn1cc(CNC2CCCCCC2)cn1	-13	1.72
O=C(NCCNCc1ccc(Cl)cc1)c1cccs1	29	-3.87
COc1ccccc1OCc1n[nH]c([C@@H]2CCCO2)n1	11	-2.04
O=C(CCc1ccncc1)N1CC[C@@H](O)[C@H]1c1ccc(Cl)cc1	-10	0.85
COc1cncc(O[C@H]2CCCN(C(=O)N3CCN(C)CC3)C2)n1	-5	0.79
Cc1nscc1C(=O)N[C@H]1CC(=O)N(c2c(F)cccc2F)C1	-10	1.92
COc1ccc(NC(=O)N(C)C[C@H](C)c2nccs2)cc1C	-11	1.02
CCc1nnc(CNc2ccc(Br)cc2C(C)=O)o1	-19	2.13
CN(C)C(=O)CN1CCN(C(=O)c2c3c(nc4ccccc24)CCC3)CC1	-16	1.43
Cc1nc([C@H]2CC23CCN(S(=O)(=O)Cc2ccccc2)CC3)no1	-17	2.49
Cc1cccc(NS(=O)(=O)c2ccc3c(c2)Cc2cc(S(=O)(=O)Nc4cccc(C)c4)ccc2-3)c1	40	-4.52
C#C[C@H](CC)NC(=O)N1CCC(OCC2CC2)CC1	-6	0.71
CCn1nc(CC(C)C)cc1C(=O)N1CCc2nocc2C1	3	-0.32
CC(C)Oc1ccc(CNC(=O)CC2CCN(C(=O)c3cc4ccccc4[nH]3)CC2)cc1	-26	2.35
CC(C)Cc1nc(C(=O)N2CCCOC2)cs1	4	-0.58
CC1CCN(c2onc(-c3ccccc3)c2CN(Cc2ccco2)C(=O)Nc2cccc(Cl)c2)CC1	9	-1.09
COc1ccc(OCc2nc3c4c(ncn3n2)-c2ccccc2CC42CCCCC2)cc1	-8	0.89
CCC(=O)Nc1ccc(Cl)c(NCC(=O)N(CC)CCC#N)c1	-13	1.29
COc1ccc(CNC(=O)[C@]2(C)Cn3cnc(C(=O)NCCc4ccco4)c3C(=O)N2C2CC2)cc1	-26	2.61

Structure (SMILES)	% Inhibition [%]	Z score
Cc1cc(C(=O)NCc2cccnc2Oc2ccc(F)cc2F)[nH]n1	-4	0.49
O=C(Cc1noc2ccccc12)N[C@H]1CC[C@H](Oc2cnccn2)CC1	-19	2.14
CCC(CC)CNC(=O)c1ccc(-n2nc(-c3nnc(C)o3)cc2C(C)(C)C)cc1	-7	0.98
COc1cc(OC)cc(C(=O)NC(C)(C)CO)c1	-18	2.4
CNCCCOc1ccc(C)cc1OC	-4	0.53
Cc1nc(C)c(-c2cc(-c3ccc4c(c3)OCCO4)nc(N)c2C#N)s1	-4	0.7
CCOc1nnc(CN2CCCC[C@@H]2Cn2cncn2)s1	-5	0.7
Cn1cc(C(=O)N[C@@H]2C[C@H]2C2CCCCC2)c(C2CC2)n1	15	-1.96
C[C@]1(CNS(=O)(=O)c2ccc(C(F)F)cc2)CCC(=O)N1	-8	1.09
COc1cccc(C#N)c1NC(=O)COC[C@H]1CCCO1	-8	1.3
COc1cc(OC)nc(NC2CC(F)(F)C2)n1	0	-0.05
Cc1[nH]ncc1CCCNc1ccc(C(=O)N(C)C)cn1	-4	0.51
c1ccc(-n2cnnc2[C@@H]2CCCCN2Cc2ccncc2)cc1	-1	0.16
C[C@H](OC(=O)c1ccncc1)c1ccc(Cl)cn1	10	-1.06
Cc1cc([C@H](O)c2cccnc2)nn1C	0	-0.03
CCc1cc(CNC(=O)C[C@H]2C(=O)NCCN2CC2CCCCC2)on1	-3	0.47
O=S1(=O)CC2(CCC(Nc3c[nH]nc3-c3ccccc3)CC2)C1	7	-0.89
CCOC1CC(NC(=O)[C@@H](O)Cc2ccccc2)C12CCOCC2 (stereo partly drawn)	-17	2.17
CC(C)c1cnc(CNc2nnc(Cc3ccsc3)o2)s1	3	-0.4
CCC1c2cccn2CCN1C(=O)CCC1(Cc2ccc(Cl)cc2)CCC(=O)N1 (stereo not drawn)	-7	1.46
COCc1cn([C@H]2CO[C@H]3[C@@H]2OC[C@H]3O)nn1	19	-2.16

Structure (SMILES)	% Inhibition [%]	Z score
c1ccc(Cc2nc3ncc4c(n3n2)CCCCC4)cc1	5	-0.7
Cc1ncc(CO)c(CN2CCc3[nH]cnc3[C@@H]2Cc2ccccc2)c1O	2	-0.31
CCCCn1c(N)c(N(Cc2ccco2)C(=O)C2CCN(C(C)=O)CC2)c(=O)[nH]c1=O	-7	1.02
O=S(=O)(N[C@@H]1COc2ccccc2C1)c1ccc(Cl)s1	12	-1.62
COc1ccccc1N1CCN(C(=O)Cn2cc(S(=O)(=O)Cc3cccc(Cl)c3)c3ccccc32)CC1	-3	0.43
CCC(NC(C)C(=O)NC(=O)NC)c1ccc(C)cc1 (stereo not drawn)	-11	1.04
Cc1cc(CNC(=O)c2nc[nH]c2C(F)(F)F)cc(C)n1	-9	1.72
O=C(C[C@H]1CCS(=O)(=O)C1)NOCc1ccccc1	-8	1.03
CC1(c2ccccc2)COC2(OC1)C(=O)N(CN1CCN(Cc3ccccc3)CC1)c1ccccc12 (stereo not drawn)	3	-0.4
Cc1nc(N(C)C2CCCCC2)ncc1[C@H](C)NC(=O)c1ccoc1	-16	1.99
COc1cccc(CNC(=O)CCc2c(OC)nc3c(c(C)nn3-c3cccc(F)c3)c2C)c1	-5	0.74
CC[C@H](C)N(CCO)c1ncnc2ccsc12	-6	0.6
COc1ccc(-c2cc3c(=O)n(CC(=O)N4CCN(C)CC4)ncn3n2)cc1	6	-0.81
CC1CCCC(OCC(=O)Nc2ccnc(N(C)C)n2)C1 (stereo not drawn)	-2	0.28
Oc1cccc(CNc2cccc3cccnc23)c1	27	-3.62
CC(=O)N[C@H]1CN(C(=O)Nc2ccc(C)cc2)C[C@@H]1c1ccc(C)cc1	-16	1.5
O=C(O)Cn1nccc1[C@H]1CCCN(C/C=C/c2ccc(F)cc2)C1	-7	1.38
CC1=C(C(=O)N2CCC[C@H]2c2nc3ccccc3s2)CCCO1	3	-0.37
Cc1nc2ccccc2n1[C@H]1CCN(C(=O)c2ccoc2)C1	-11	1.51
O=S(=O)(Cc1ccc(Cl)cc1)N1CC(Oc2cccnc2)C1	-2	0.25
CC1CCN(C(=O)c2cc(S(=O)(=O)N3CCC[C@H](C(=O)NC4CCCC4)C3)c[nH]2)CC1	-11	1.09

Structure (SMILES)	% Inhibition [%]	Z score
CCc1ccc(CN2CCc3[nH]cnc3[C@@H]2c2cccn2-c2ncccn2)o1	-1	0.27
O=C(Nc1nncs1)N1CCC[C@H]1c1ccc2c(c1)OCCO2	-6	0.76
C[C@@]1(C(=O)O)CCCN1Cc1cc(-c2ccccc2)on1	1	-0.22
COc1cccc([C@H](CN2CCN(C(=O)c3ccc(OC)c(F)c3)CC2)OCc2cccc(Cl)c2)c1	-8	1.25
O=C1c2ccccc2N[C@H](c2ccsc2)N1CCc1ccccc1	-2	0.44
CC(=O)N1c2ncnn2C(c2ccc(C)cc2)CC1c1ccc(Cl)cc1 (stereo not drawn)	-9	1.19
CC(C)c1cc(C(=O)N2CCN(C)[C@]3(CCC(=O)N(CC4CC4)CC3)C2)no1	-9	1.16
Cc1ccccc1Cn1nnc2cc(C(=O)N3CCC(Cc4ccccc4)CC3)ccc21	9	-0.9
O=C(O)[C@H]1CCCN(c2ncnc3ccsc23)C1	2	-0.42
Cc1noc(C)c1C(C)NC(=O)C(C1CC1)N1CCCC1 (stereo not drawn)	12	-1.08
COc1ccccc1N1CCN(C(=O)C(=O)N2CCN(c3ccccc3OC)CC2)CC1	-5	0.66
NC(=O)c1ccccc1NC(=O)CNCc1cccnc1	-11	1.26
Nc1nc(N2CCC[C@H](CNC(=O)Cc3cccs3)C2)cc2nncn12	-5	0.66
Cc1ccc(Cl)cc1NC(=O)Cn1ccc(C(=O)Nc2cc(Cl)ccc2C)n1	34	-3.84
C[C@@H](C(=O)NCc1cc2n(n1)CCN(C1CCCCC1)C2)n1cncn1	-1	0.12
C=CCN1C(=O)C2(CCCCC2)NC12CCN(c1ccccn1)CC2	6	-0.82
CN(CCc1ccccc1)C1(C(=O)N2CCCOCC2)Cc2ccccc2C1	10	-1.63
Cc1nnc([C@H](C)S(=O)(=O)c2ccc(C)c(C)c2)s1	2	-0.4
Cn1c(C2CCOC2)nnc1N1CCC2(CCOC2)C1 (stereo not drawn)	-1	0.25
O=C(c1cccc(-n2cnnn2)c1)N1CCN(C(=O)c2cc3n(n2)CCCC3)CC1	-3	0.47
Cc1cc(C)cc(NC(=O)[C@H](C)NS(=O)(=O)c2ccc3c(c2)CCN3C(=O)N2CCCC2)c1	-7	1.42
